Experimental findings from PubChem BioAssay AID360 (National Center for Advancing Translational Sciences (NCATS), 2006) are described below.

Among all 48,000 compounds or so, about 550 (1.1%) were called active. Not shown: some 4% with an inconclusive outcome. Cut-off read from the data, not from the text of the source: active = potency below about 15 µM; inconclusive = mostly about 16 µM to 33 µM; inactive = weaker than that. Some of the results follow. Bounds are passed on as bounds.
Potency is the fitted concentration of half-maximal effect.

This assay addresses Lysosomal acid glucosylceramidase (Homo sapiens) (UniProt P04062). Description: Glucocerebrosidase.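 Note: the screen sought inhibitors.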 As to conditions: purified enzyme, resorufin glucoside fluorescence (screen aimed at inhibitors), 20 min. In outline: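 Compounds titrated against 0.2 nM normal enzyme, 30 uM resorufin beta-D-glucopyranoside substrate, citrate/phosphate buffer with taurocholate and tween-20, pH 5.9. Reaction ran 20 min at room temperature; fluorescence (Ex 548/Em 600) gave AC50.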
UniProt P04062, sequence (P04062 whole entry, looked up): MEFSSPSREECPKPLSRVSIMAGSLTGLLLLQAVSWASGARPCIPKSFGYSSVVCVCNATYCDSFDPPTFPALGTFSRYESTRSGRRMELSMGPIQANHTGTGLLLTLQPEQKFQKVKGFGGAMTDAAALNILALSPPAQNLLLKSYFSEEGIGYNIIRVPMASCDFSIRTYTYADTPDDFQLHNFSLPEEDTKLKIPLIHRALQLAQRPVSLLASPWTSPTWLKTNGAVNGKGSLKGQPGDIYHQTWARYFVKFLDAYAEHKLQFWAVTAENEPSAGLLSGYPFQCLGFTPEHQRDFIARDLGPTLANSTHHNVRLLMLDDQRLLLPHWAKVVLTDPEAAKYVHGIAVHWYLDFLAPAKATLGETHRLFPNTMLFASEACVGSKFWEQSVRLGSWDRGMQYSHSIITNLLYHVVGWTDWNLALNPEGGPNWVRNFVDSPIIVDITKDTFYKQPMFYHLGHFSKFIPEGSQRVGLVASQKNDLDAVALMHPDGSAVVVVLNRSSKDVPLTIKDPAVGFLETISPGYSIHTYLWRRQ
With `COCC(=O)N(C)c1nnc(-c2cnc(C)cn2)s1`, the Potency was inactive: > 76.9 µM. As to `CC(=O)N1CCN(c2ccccc2NC(=O)COc2cc(C)ccc2C(C)C)CC1`, the Potency is inactive: > 76.9 µM. On to `COCCCn1c(=N)c(C(=O)NCC2CCCO2)cc2c(=O)n3cccc(C)c3nc21` (stereo unspecified), for which the Potency is inactive: > 76.9 µM.

For the compound `COc1cccc(OC)c1NC(=O)C1CCCN1C(=O)NCc1ccccc1` (stereo unspecified), the Potency is inactive: > 76.9 µM. Turning to `CCC(=O)N1CCCc2cc(S(=O)(=O)NCc3cccs3)ccc21`, the Potency was inactive: > 76.9 µM.

Regarding `O=C(CN1CCC(n2nnc3cc(C(F)(F)F)ccc32)CC1)N1CCc2ccccc21`, the Potency result is “inactive”. For `O=c1c2ccccc2c(C=NC2CCS(=O)(=O)C2)c(O)n1-c1ccccc1` (stereo unspecified), the Potency is inactive: > 76.9 µM. For the compound `COCc1cc(C)n(CC(=O)Nc2ccccc2OC)c(=O)c1C#N`, the Potency is inactive: > 76.9 µM.

As to `CCOC(=O)Nc1ccc(OC)cc1S(=O)(=O)N1CCCCC1`, the Potency was inactive: > 76.9 µM. As to `COc1ccc(OC)c2[nH]c(=O)c(CCNC(=O)c3ccc(S(=O)(=O)N4CCCC4)cc3)cc12`, the Potency is inactive: > 76.9 µM.

Turning to `CC(=O)N1CCc2cc(S(=O)(=O)CCC(=O)N3CCN(c4ccccn4)CC3)ccc21`, the Potency was inactive: > 76.9 µM. `CCOC(=O)N1CCN(C(=O)N2CCOCC2)CC1`: the Potency is inactive: > 76.9 µM. The same measure for `CCOC(=O)c1c(CN2CCOCC2)n(-c2ccccc2)c2ccc(O)cc12`: inactive: > 76.9 µM; for `CC(C)C[C@H](NC(=O)NCc1ccc(Cl)cc1)C(=O)O`: inactive: > 76.9 µM; for `Cn1c(=O)c2cn(Cc3ccc(Cl)cc3)cc2n(C)c1=O`: inactive: > 76.9 µM.

Regarding `O=C1CC(N2CCC(O)(c3ccc(Cl)cc3)CC2)C(=O)N1Cc1ccc(N2CCCC2=O)cc1` (stereo unspecified), the Potency was inactive: > 76.9 µM. On to `COc1cc(C(C)=O)ccc1OCC(O)CN1CCN(S(=O)(=O)c2ccccc2)CC1` (stereo unspecified), for which the Potency was inactive: > 76.9 µM. Turning to `CCOC(=O)COc1ccc2nsnc2c1`, the Potency was inactive: > 76.9 µM. As for `O=C(c1ccco1)N1CCN(c2nc3ccccc3c(=O)n2-c2ccccc2)CC1`, the Potency is inactive: > 76.9 µM. `Cc1ccc(C)c(NC(=O)CSc2nnc(-c3ccncc3)n2N)c1`: the Potency was inactive: > 76.9 µM. With `O=C(NCCc1ccccc1)C1CCCN1C(=O)NCc1ccccc1` (stereo unspecified), the Potency was inactive: > 76.9 µM.

As for `O=S(=O)(Nc1ccccc1N1CCOCC1)c1ccc(Cl)s1`, the Potency is inactive: > 76.9 µM.

In the case of `Cc1ccsc1C(=O)OCc1csc(-c2ccccc2)n1`, the Potency is inactive: > 76.9 µM.

For `CCCn1c(N2CCN(CC(=O)NCc3cccs3)CC2)nc2ccccc21`, the Potency is inactive: > 76.9 µM. Next, `CCCS(=O)(=O)N1CCC(C(=O)NCCN2CCC(Cc3ccccc3)CC2)CC1`: inactive: > 76.9 µM; `COc1ccc(C(=O)NC2CCN(S(=O)(=O)Cc3ccccc3)CC2)c(OC)c1`: inactive: > 76.9 µM. `COc1ccc(CCn2c(SCC(=O)Nc3cc(C)on3)nc3ccsc3c2=O)cc1OC`: the Potency was inactive: > 76.9 µM.

For `CN(C)S(=O)(=O)c1ccc(/C(O)=C2/C(=O)C(=O)N(Cc3cccnc3)C2c2ccco2)cc1` (stereo unspecified), the Potency was inactive: > 76.9 µM. On to `O=c1[nH]c(CN2CCN(C/C=C/c3ccccc3)CC2)nc2ccccc12`, for which the Potency is inactive: > 76.9 µM. Next, `CCn1nc(NC(=O)c2ccncc2)c2cc3cc(C)ccc3nc21`: inactive: > 76.9 µM. Next, `CCc1c(C)c2nncn2[nH]c1=O`: inactive: > 76.9 µM; `COc1ccc(-c2nc(N)ncc2-c2csc(C)n2)c(O)c1`: inactive: > 76.9 µM.

As for `O=C(CSc1nc2ccccc2o1)NC(=O)NCc1ccco1`, the Potency was inactive: > 76.9 µM. For the compound `C=CCn1c(SCn2nnc3ccccc3c2=O)nc2scc(-c3cccs3)c2c1=O`, the Potency is inactive: > 76.9 µM.

`CCc1nc(NCCN2CCOCC2)c2oc3ccccc3c2n1`: the Potency was inactive: > 76.9 µM. As to `Cc1cnc(NC(=O)CN(C)S(=O)(=O)c2ccc(Cl)cc2)s1`, the Potency was inactive: > 76.9 µM. As to `Cc1ccc(N(CC(=O)N2CCc3ccccc32)C2=NC(=O)CS2)cc1`, the Potency is inactive: > 76.9 µM. Regarding `COc1ccc(CNc2nc3nc(-c4ccccc4)cc(=O)n3[nH]2)cc1OC`, the Potency is inactive: > 76.9 µM. `CC(C)OCCCNC(=O)C1CCC(=O)N1C(C)C` (stereo unspecified): the Potency was inactive: > 76.9 µM.

As to `COCCn1c(CN2CCC(Cc3ccccc3)CC2)nc2c1c(=O)n(C)c(=O)n2C`, the Potency was inactive: > 76.9 µM. With `CCC(Sc1ccccn1)C(=O)Nc1nnc(C)s1` (stereo unspecified), the Potency is inactive: > 76.9 µM.

Consider `COc1ccccc1/C=c1\sc2nc(-c3cccs3)nn2c1=O`, for which the Potency is inactive: > 76.9 µM. Turning to `Cc1ccc(CNc2oc(-c3cccs3)nc2C#N)cc1`, the Potency was inactive: > 76.9 µM.

Turning to `Cc1ccc(CSc2nc3c(c(=O)[nH]2)C(c2ccncc2)C2=C(CCCC2=O)N3)cc1` (stereo unspecified), the Potency was inactive: > 76.9 µM. Consider `Cc1cc(C(=O)O)c(S(C)(=O)=O)s1`, for which the Potency is inactive: > 76.9 µM.

As to `COc1ccc2c(c1OC)C(=O)NC(C)=C(C(=O)OC(C)(C)C)C2O` (stereo unspecified), the Potency was inactive: > 76.9 µM. Next, `Cc1ccc2c(c1)C1C=CCC1C(C(=O)O)N2` (stereo unspecified): “inactive”. As for `CC1Oc2ccccc2N(CC(=O)c2ccccc2)C1=O` (stereo unspecified), the Potency was inactive: > 76.9 µM. The same measure for `CC1CCN(Cc2nc3c(c(=O)n(C)c(=O)n3C)n2CCc2ccccc2)CC1`: inactive: > 76.9 µM; for `Brc1cnc(N2CCOCC2)nc1N1CCCCC1`: inactive: > 76.9 µM. With `CCOc1ccccc1N1CCN(C(=O)c2cc[n+]([O-])cc2)CC1`, the Potency was inactive: > 76.9 µM. For the compound `Cc1csc(NC(=O)CN2CCCCCC2)n1`, the Potency was inactive: > 76.9 µM. The same measure for `CC(C)OC(=O)c1nnn(-c2nonc2N)c1CN1CCCCCC1`: inactive: > 76.9 µM; for `Cc1nn2c3c(cnc2c1-c1ccc(Cl)cc1)C(=O)CC(c1ccco1)C3` (stereo unspecified): inactive: > 76.9 µM; for `C=CCn1c(=O)c(C(=O)Nc2ccccc2C(=O)OCC)c(O)c2ccccc21`: inactive: > 76.9 µM. Next, `COCCn1c(SC(C)C(=O)Nc2ccc3c(c2)OCCO3)nc2ccccc2c1=O` (stereo unspecified): inactive: > 76.9 µM; `CC(O)C(O)C(O)C(O)C1NCCS1` (stereo unspecified): inactive: > 76.9 µM. For the compound `COc1ccc(S(=O)(=O)N2CCN(C(=O)[C@@H]3CCC(=O)N3C3OC(=O)c4ccccc43)CC2)cc1` (stereo partly specified), the Potency is inactive: > 76.9 µM. Consider `CC(C)(C)OC(=O)NC(CCCCNC=O)C(=O)O` (stereo unspecified), for which the Potency was inactive: > 76.9 µM.

`COc1cccc(C(=O)CSc2nnc(CNc3nc(-c4ccccc4)cs3)n2C)c1`: the Potency entry is “inactive”. For the compound `Cc1noc(C)c1C(=O)Nc1nc(C23CC4CC(CC(C4)C2)C3)cs1`, the Potency is inactive: > 76.9 µM. Take `Cc1ccnc(SCC(=O)O)n1`: the Potency is inactive: > 76.9 µM.

Take `CC(C)(C)n1nnnc1C(c1cccc(C#N)c1)N1CCCc2ccccc21` (stereo unspecified): the Potency is inactive: > 76.9 µM. For the compound `CCn1c(=O)c(=O)[nH]c2cc(C(=O)N3CCN(c4ccccc4F)CC3)ccc21`, the Potency was inactive: > 76.9 µM. Regarding `N#CC1=C(N)C2=C(N3CCCCC3)CCCC2C1(C#N)C#N` (stereo unspecified), the Potency was inactive: > 76.9 µM. As to `COC(=O)c1ccc(Cn2nc(C)c(Br)c2C)cc1`, the Potency was inactive: > 76.9 µM. Take `COc1ccc(CCN2C(=O)CC(N3CCN(c4ccccn4)CC3)C2=O)cc1OC` (stereo unspecified): the Potency was inactive: > 76.9 µM. For the compound `CCC1CCCCN1CCn1c(=S)[nH]c2cc(OC)c(OC)cc2c1=O` (stereo unspecified), the Potency is inactive: > 76.9 µM. Next, `O=C(NCCSCc1ccccc1)c1cc(S(=O)(=O)N2CCOCC2)ccc1F`: inactive: > 76.9 µM; `CN(C)S(=O)(=O)c1ccc(Oc2ccccc2)cc1`: inactive: > 76.9 µM. Turning to `CC1=C(C(=O)N2CCOCC2)C(c2ccccc2F)C2=C(CCCC2=O)N1` (stereo unspecified), the Potency was inactive: > 76.9 µM. In the case of `CC(=O)N1CCCc2cc(S(=O)(=O)N3CCN(C4CCCCC4)CC3)ccc21`, the Potency is inactive: > 76.9 µM. Consider `O=C(NCc1ccco1)C(C(=O)c1ccc(F)cc1)n1ccccc1=O` (stereo unspecified), for which the Potency is inactive: > 76.9 µM.

As to `CCOc1cc(C(=O)OCc2ccc(C(=O)OC)o2)cc(Br)c1OC`, the Potency is inactive: > 76.9 µM. Take `COc1cccc(OCC(O)CN2C(C)CCCC2C)c1` (stereo unspecified): the Potency is inactive: > 76.9 µM. As for `Cc1cc(C)nc(NC(=O)CSc2ccccn2)n1`, the Potency is inactive: > 76.9 µM. `O=C(NCC1CCCO1)c1cccc(NC(=O)c2ccco2)c1` (stereo unspecified): the Potency is inactive: > 76.9 µM.

As to `Clc1ccc(-c2nnc(SCc3ccon3)o2)c(Cl)c1`, the Potency is inactive: > 76.9 µM. As for `CCOC(=O)c1cc(C(=O)c2cc(F)ccc2O)coc1=N`, the Potency was inactive: > 76.9 µM. As for `O=C(CCn1nc(-c2ccc(Cl)cc2)ccc1=O)N1CCOCC1`, the Potency is inactive: > 76.9 µM. With `c1nc(NCC2CCCO2)c2[nH]cnc2n1` (stereo unspecified), the Potency was inactive: > 76.9 µM. For the compound `CN(C)c1ccnc2sc3c(=O)n(-c4ccccc4)cnc3c12`, the Potency was inactive: > 76.9 µM. Take `CC(C)(C)OC(=O)NC(CCNC=C1C(=O)OC(C)(C)OC1=O)C(=O)O` (stereo unspecified): the Potency was inactive: > 76.9 µM. Take `O=C(Nc1ccc(N2CCOCC2)cc1)C1CCCN(S(=O)(=O)c2cccc(C(F)(F)F)c2)C1` (stereo unspecified): the Potency is inactive: > 76.9 µM. As to `CCOc1ccc(OCc2ccc(C(=O)N3CCCC3)o2)cc1`, the Potency was inactive: > 76.9 µM.

Regarding `O=C(O)CCN1Cc2ccccc2C1=O`, the Potency is inactive: > 76.9 µM. In the case of `CCc1c(C(=O)Nc2ccc(S(=O)(=O)N3CCOCC3)cc2)csc1C`, the Potency is inactive: > 76.9 µM. As for `COC(=O)c1oc2ccc(Br)cc2c1NC(=O)CN1CCN(C)CC1`, the Potency was inactive: > 76.9 µM. With `Cc1ccccc1CS(=O)(=O)Cc1ccc(C(=O)NCC2CCCO2)o1` (stereo unspecified), the Potency is inactive: > 76.9 µM. As for `O=C(CSc1ncn[nH]1)NCCCc1ccccc1`, the Potency was inactive: > 76.9 µM.

On to `COC(=O)c1c(N)n(-c2ccc(NC(C)=O)cc2)c2nc3ccccc3nc12`, for which the Potency entry is “inactive”.
